± gives the standard deviation of the averaged measurements. Whole data set: some 4,100 sequences, median “arbitrary fluorescence units” near 780, cut for the highest 2% near 22,000. The list shows a part of the results.

The experiment concerns the target T1, ETS1 (UniProt P14921).
T1 sequence: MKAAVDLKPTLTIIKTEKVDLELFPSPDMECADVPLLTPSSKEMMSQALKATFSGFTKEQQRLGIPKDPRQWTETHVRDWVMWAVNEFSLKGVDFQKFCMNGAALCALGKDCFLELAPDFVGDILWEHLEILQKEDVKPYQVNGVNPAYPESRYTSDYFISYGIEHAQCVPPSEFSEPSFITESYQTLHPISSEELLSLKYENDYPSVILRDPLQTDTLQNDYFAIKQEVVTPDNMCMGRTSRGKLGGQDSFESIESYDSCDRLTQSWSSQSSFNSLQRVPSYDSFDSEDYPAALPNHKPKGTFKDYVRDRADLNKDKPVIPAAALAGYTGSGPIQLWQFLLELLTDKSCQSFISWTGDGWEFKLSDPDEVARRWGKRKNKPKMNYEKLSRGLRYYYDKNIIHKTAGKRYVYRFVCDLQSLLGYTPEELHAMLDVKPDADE
Kind of experiment: ETS1 binding intensity (PBM fluorescence), ETS1 alone (arbitrary fluorescence units); higher = stronger binding. The following applies: ETS1 concentration 1 nM; RUNX1 concentration 0 nM. The method in brief:
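Recombinant full-length human ETS1 was applied at 1 nM, without RUNX1, to double-stranded Agilent 4 × 180k arrays of 36-bp genomic probes carrying a mutated RUNX1 partner site, following standard PBM protocols. Detection used an anti-ETS1 antibody (Cell Signaling Technology 14069) and an Alexa488-conjugated secondary antibody, with scanning on a GenePix 4400A. Each sequence was printed as four replicate spots. Binding level is the spot fluorescence intensity, summarised across replicates and not normalised.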
Consider GGCTGTGTTGGGGTTACTGCGGAAACTTCATTTTTC, for which the ETS1 binding intensity came out at 493.

ACAGGAAGTGAGGCTGTGAGGAGTTTTTGGTGTGTA returned an ETS1 binding intensity of 2020.

AGTGGGGCCCCAGGATGTGTTTTGGTCTTGCAAGGT registered an ETS1 binding intensity of 390.

For the sequence TTGGGGTTTGGTTTAACCCCTGTAATTTCCTGTAAA, the ETS1 binding intensity stood at 750.

TGTCTGACGTTTCTCTGTGAACAGGAAGCTGAGAAC came in with an ETS1 binding intensity of 1150.

In the case of CGTCACTTCCCACGCGACTGCCAGCGGGAAACATGG, the ETS1 binding intensity stood at 1190.

CTGGTCACTGGGGTGAGGAGGCTTTTCCTGGGGTAA had an ETS1 binding intensity of 387.

ACCACCTACAGCCGTCTAACATCACTTCCTTCAGAG displayed an ETS1 binding intensity of 657.

Sequence GAGGGCTGCTTCCTGCTCTGTGGAGGCCGCTGAGGG gave an ETS1 binding intensity of 6710.

Consider GTCGGAGATGGTGGACACGAGCGCTTCCGGGTCAGC, for which the ETS1 binding intensity amounted to 1730.

For the sequence TTCGCGTGCTCACTTTCGCGTCCATTCCGGGCTTCT, the ETS1 binding intensity came out at 386.

With CCCAGCCACATCCCAGAGCAGCTAACCTACAGTCCT, the ETS1 binding intensity was found to be 480.

Take AGCGCAGCCGTAGACTCCGCTCACATCCCCGGGTCG: the ETS1 binding intensity was 314.

The sequence TCGCACCGGAACCCCTTGGCGGATTATGTGAGTTCA came in with an ETS1 binding intensity of 669.

Take GTCCTTTCTCGTGGGCAAGGAAGTGGGGCCCCAGGG: the ETS1 binding intensity amounted to 416.

On to GGGCAGCATCCTGTGCCTGCTTCTCTTACCTACATC, for which the ETS1 binding intensity was determined as 4780.

Sequence CTTCTCGCGGAAGCGGCACAAGGCGCAGTACAGCGC showed an ETS1 binding intensity of 589.

Regarding CATGCCTACCCTCGGGCCCTCTCAGCTTCCGTACAC, the ETS1 binding intensity was found to be 401.

CTGAGGGTGACTGAGCGGGGCCAGCCGGAAGGGCGG showed an ETS1 binding intensity of 449.

GCTGAGCACATTAAACCAGCGCCCACTTCCTCTCAC came in with an ETS1 binding intensity of 824.

For TGTCGGGCTCCGGGGGCGGGGAAGTGGCGGCTGAAG, the ETS1 binding intensity came out at 810.

The sequence GTGACGTGGCTGTAGGTCTCATTTCCTGCACGGCCT returned an ETS1 binding intensity of 2060.

Take CAAATCCACTTGGCAGCTGAGTCAACATCCTGCCTG: the ETS1 binding intensity was determined as 1650.

Sequence GCTCCAACCGGCGCACTTTCGGAGAACGGGAAGGGG showed an ETS1 binding intensity of 412.

In turn, TTTTCTCTAAACTACATCAAAACCAGGAAACCAGTC had an ETS1 binding intensity of 650.

In turn, GTTCCTGGTTTGTAGTTATGATTTCCTGTTTGCCTT displayed an ETS1 binding intensity of 3820.

With GCTGGCGGCGGAGGTCCTGTGGAGCTTCCTCTTCGG, the ETS1 binding intensity is 360.

With TGACATTTCCGGCCCCACCTCGGCCTGCAGCGCCGC, the ETS1 binding intensity turned out to be 40200.

Turning to TGTGTAAGAGGAAACACCAAAACTACAAATATGAAA, the ETS1 binding intensity stood at 702.

Consider CGGGCTCTCCAGGAAGGTGGCTGCGCCGACAAAATG, for which the ETS1 binding intensity is 316.

The sequence CCCGGCTGAGGGCCCAGGAACTACATTTCCTAGAAG showed an ETS1 binding intensity of 389.

In turn, CCCCCAGCGGCCAGGAGCAGTCCGGAAGTCGCAGCC had an ETS1 binding intensity of 1820 ± 140.

Take CAGTCAGACGGAAGCCCGGCTTCTGAGGTGCCTGCC: the ETS1 binding intensity amounted to 789.

In the case of AAGGCAAACAGGAAATCATAACTACAAACCAGGAAC, the ETS1 binding intensity amounted to 7790.

Sequence TATAATTTACGGCTGGGTGTTTCCTGTTTTTTTGCA registered an ETS1 binding intensity of 1540.

Sequence CTTCCTATGAAAAGCACTTTCCTTCCTACCAAAACC returned an ETS1 binding intensity of 503.

The sequence AAGTTCTTCCGGGTCTGCAGTCTCTGGTGTGTTTGC returned an ETS1 binding intensity of 5300.

Sequence GAGTGGCTGTTGTCTCGGGCGGATGGGGAGAAGAGA came in with an ETS1 binding intensity of 521.

GGTCTGAGCGGAGGAGGGAAGCAGACAGGAAGTGGG: the ETS1 binding intensity came to 3130.

On to AGCGCGAGGCCGCTGAGGGGAGTGACCGGAAGTGGC, for which the ETS1 binding intensity is 7150.

TCTGTTTTGTGAGTTCCCTGCCCCCCTTCCGCCTTT came in with an ETS1 binding intensity of 517.

GTGCTGAGCAGCTTCCCGTCTGCGCTGAAGACAGCC had an ETS1 binding intensity of 2450.

As to GCAGTCCTGAGGTGAGTATTTATTTCCTGCTGTTCT, the ETS1 binding intensity was 786.

In turn, TTCTTGTTTCCTGTCAAGGGAGGCTCTGAGCACCTC returned an ETS1 binding intensity of 11500.

In turn, GGCTGCGACTTCCGGACTGCTCCTGGCCGCTGGGGG registered an ETS1 binding intensity of 22900 ± 1200.

On to TCAAAGTAAAAGCTCAGTGTTTCCGTGTTCTAAGCA, for which the ETS1 binding intensity stood at 679.

Take GACTCGCTCTTCGGCCCCACGCAGGAAGCCTCCTTG: the ETS1 binding intensity is 354.

GCTCGGGGTGCCTCTGGGTCAGGTGAGACGGACGTG: the ETS1 binding intensity is 341.

Sequence TGCGCCGGAAGTGCATGAGCTGCCGATGAGGTGCTT yielded an ETS1 binding intensity of 8970.

Turning to TCCCCTTTCCGGGAAGGGTTGGGGATCTGAGCACGT, the ETS1 binding intensity was determined as 3420.

Sequence TCTCCCGGAACTGCTCCTTCACCATGATGACGGCTG returned an ETS1 binding intensity of 650.

CGTGTTTTGGGGCTGTGTTCTGTCCGGTCAGTTGTT gave an ETS1 binding intensity of 600 ± 82.

Consider ACAGGAAGAGATATTATATCTCCCTGGGGTTGGTTT, for which the ETS1 binding intensity was 537.

The sequence TACGCAGCCTACAAGCCCGACAGGATGTCATGAATA yielded an ETS1 binding intensity of 962.

TGATGTGCTCATAACACCCTCCCCTCAGCTTCCTTA returned an ETS1 binding intensity of 355.

In turn, TGATGCAGGAAGGGGTGGAGTCACCTCAGGAGGTAG displayed an ETS1 binding intensity of 525.

On to GAGGAGATTTCCGGCCCCCATCCCCTCAGCGACCTT, for which the ETS1 binding intensity is 15100.

As for GGCAGGAGCTTCCGGCTCAGCCCTTCGGCCTGTGCC, the ETS1 binding intensity came to 8290.

Sequence TCAGCTGCGCGATGAGTCAGTGCGAGCAGGAAGCAC returned an ETS1 binding intensity of 410.

On to AGCACCCGGAAGTCGGAGCTGCGCACGCACCGAGGG, for which the ETS1 binding intensity was 7420.

With CAGGCAGGATGTTGACTCAGCTGCCAAGTGGATTTG, the ETS1 binding intensity amounted to 4000.

Regarding AAGTTCGCAGCCGCCAAGAGGGGAAACGGGCTGCGC, the ETS1 binding intensity is 324.

Values taken from the supplement of paper PMC10681739.
